Experimental data as given in the supplement of paper PMC10126150.
Sequences with one replicate were seen in a single cluster, so their values are uncertain.

tested on: ATP; assay: switch fluorescence ratio, 500 uM ATP over buffer (Cy3 cluster intensity, sum of 5 cycles each) (fold (ratio)); higher = stronger signal-on switching upon ATP binding; sequences stand for … in TCGTCGGCAGCGTCAGATGTGTATAAGAGACAGTTTTTTTTTTTTTTTTTTTTTTTTT…TC; details: aptamer strand: ATP DNA aptamer (quencher-CACCTGGGGGAGTATTGCGGAGGAAGG + anchor), 100 nM annealed; ATP concentration: 500 uM; one replicate
In short: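 Clusters with intensities outside 100-1000 RFU were excluded. The remaining Cy3-labelled switching-strand clusters on a modified Illumina MiSeq flow-cell had been annealed to 100 nM quencher-labelled ATP aptamer and imaged in selection buffer, then after 15 min with 500 uM ATP at 22 °C, for five cycles separated by NaOH stripping and re-annealing. The fluorescence ratio, averaged per switch-domain sequence, is each cluster's summed target-cycle Cy3 intensity over its summed buffer-cycle Cy3 intensity.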
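Further: ATP exposure 15 min at 22 °C before imaging.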

Sequence | switch fluorescence ratio
TAATGATCGT | 0.982
TAATGCAGGG | 0.99
TAATGCGGC | 1.05
TAATGCTGGG | 1.05
TAATGCTTAG | 1.02
TAATGCTTTC | 1.02
TAATGGCGTC | 1.06
TAATGGGATC | 0.995
TAATGGTGGC | 0.979
TAATGGTGTT | 1.02
TAATGTCATG | 0.994
TAATTAACGG | 0.966
TAATTACTA | 1.06
TAATTAGAGA | 0.948
TAATTAGTAA | 0.953
TAATTCCACT | 1.01
TAATTCCATT | 0.972
TAATTCGAAT | 0.982
TAATTCGACG | 0.979
TAATTCTAGG | 1.02
TAATTTACCG | 1.02
TAATTTCCGA | 1.03
TAATTTGCA | 1.02
TAATTTGCTA | 0.992
TACAAGGGGT | 1.04
TACAATTCGG | 0.963

Sequence | switch fluorescence ratio
TACACAACCC | 1.18
TACACGGATG | 1
TACACGTC | 1.02
TACACGTGGC | 1.05
TACAGAACAT | 1.1
TACAGATGAG | 0.985
TACAGCCGTT | 0.982
TACAGGGAGC | 1.01
TACAGTATTA | 1.04
TACAGTCATT | 1.02
TACAGTGGGG | 0.991
TACATAGATA | 0.991
TACATAGTCT | 1.05
TACATATAGA | 1.05
TACATGTGA | 1.03
TACATTACCC | 1.32
TACATTAGGT | 1.01
TACATTGGGT | 0.979
TACCAACGT | 1.4
TACCAAGCTG | 1.13
TACCACGAAA | 1.12
TACCAGGGAC | 1.09
TACCAGGGGA | 1.43
TACCATAAC | 1.11
TACCATCATG | 0.985
TACCATCGTT | 1

Sequence | switch fluorescence ratio
TACCATTGGT | 1.03
TACCCAATGT | 0.99
TACCGAGTTT | 0.981
TACCGCCGAG | 1.12
TACCGCGCT | 1.09
TACCGGACC | 1.45
TACCGTTGGA | 1.05
TACCTAAAAT | 0.984
TACCTCGGGG | 0.953
TACCTGCAGG | 1.02
TACCTGCTAT | 1.08
TACCTTCAAT | 1.08
TACCTTTAGG | 1
TACGAACATG | 1.24
TACGAAGCCT | 1.39
TACGAATGCT | 1.01
TACGACATT | 1.14
TACGACTCGA | 1.12
TACGACTGTG | 1.03
TACGAGACCA | 1.04
TACGAGGACG | 1.05
TACGAGTGTC | 1.01
TACGCAAAGC | 2.25
TACGCCCGGT | 1.01
TACGCCTAGG | 1.09
TACGCTCGAA | 1.01

Sequence | switch fluorescence ratio
TACGGAAAAC | 1.31
TACGGAAGGG | 1.05
TACGGACCGA | 1.13
TACGGATGA | 1.05
TACGGATGAA | 0.963
TACGGCAG | 1
TACGGCATTG | 1.01
TACGGCTTAT | 0.961
TACGGGCAGC | 1.04
TACGGGCATT | 1.16
TACGGGGGC | 1.01
TACGGTAATT | 1.09
TACGGTGGTT | 0.983
TACGGTGTAT | 1.05
TACGGTTCTG | 0.993
TACGTCGATG | 1.01
TACGTCGTAG | 1.02
TACGTCTCCG | 1.08
TACGTGGCG | 1.04
TACGTGGTTA | 1.02
TACGTTGCGA | 1.02
TACGTTGGAA | 1.01
TACTAACCAA | 1.08
TACTAACGT | 1.49
TACTAAGCAG | 1.07
TACTAAGGCG | 1.03

Sequence | switch fluorescence ratio
TACTAAGGGT | 0.985
TACTACTCCC | 1.61
TACTAGAGGT | 0.97
TACTAGATTT | 1.01
TACTAGGATG | 0.995
TACTAGGCTC | 1.02
TACTAGGGTG | 1.15
TACTAGGTGG | 1.06
TACTAGTATT | 1
TACTAGTCCG | 1.04
TACTAGTTAG | 1.01
TACTATTCGG | 1.02
TACTCAACGG | 1.3
TACTCACACT | 1.4
TACTCACCCT | 1.54
TACTCATCTT | 1.02
TACTCCACGA | 2.33
TACTCTACGG | 1.5
TACTCTGGAG | 0.997
TACTGAAACT | 1.08
TACTGACGCC | 1.32
TACTGAGCGC | 1
TACTGATGAG | 1.03
TACTGCGATT | 1.12
TACTGGCGGA | 1
TACTGGTCTG | 1.02

Sequence | switch fluorescence ratio
TACTGTACTT | 1.43
TACTGTCTCA | 0.988
TACTGTCTCT | 0.975
TACTTACACC | 1.39
TACTTACCCC | 1.28
TACTTGATGG | 0.914
TACTTGTCGT | 0.964
TACTTTGGAC | 1.04
TAGAAAAGAT | 1.05
TAGAAAATCA | 1.12
TAGAAAGTC | 0.987
TAGAAATACG | 1.15
TAGAACACGC | 1.04
TAGAAGACCG | 1.03
TAGAAGCAT | 1.02
TAGAAGCCTT | 1.01
TAGAAGCGTT | 0.967
TAGAAGTTGG | 0.969
TAGAATATTC | 1.02
TAGAATGGGC | 0.983
TAGAATTTA | 0.967
TAGACATCTC | 0.969
TAGACGAATC | 0.981
TAGACGAGCT | 1.03
TAGACGCGGT | 1.01
TAGACGGAAT | 1.14

Sequence | switch fluorescence ratio
TAGACGGACT | 1.17
TAGACTAATA | 1.02
TAGACTGCTC | 1.09
TAGAGAGCAG | 0.994
TAGAGATGTT | 0.996
TAGAGCCCAC | 1.03
TAGAGCGCTC | 0.984
TAGAGCGGAG | 1.04
TAGAGGAAAC | 1.01
TAGAGGCCGT | 1.17
TAGAGGTATC | 1.07
TAGAGGTGAC | 1.04
TAGAGTGGAC | 0.976
TAGAGTGGGA | 1.05
TAGATCCATG | 1.01
TAGATCTACC | 1.04
TAGATGGGTG | 1.02
TAGATGTAGG | 0.997
TAGATGTCA | 1.06
TAGATGTTGG | 0.999
TAGCAAACCC | 1.33
TAGCAACAAG | 1.01
TAGCAAGT | 1.1
TAGCAAGTCG | 1.03
TAGCACGTCT | 0.934
TAGCACTTCA | 1.1

Sequence | switch fluorescence ratio
TAGCAGAACT | 1.19
TAGCAGAAGC | 1.03
TAGCAGTCTG | 1.02
TAGCCCAAGA | 1.03
TAGCGACATG | 0.98
TAGCGACCTG | 1.03
TAGCGAGGTA | 0.984
TAGCGCCATA | 1.04
TAGCGCGCTC | 1
TAGCGGCCTA | 1.04
TAGCGGGGAA | 0.982
TAGCGGTGTA | 0.959
TAGCGTATGC | 0.896
TAGCGTCATG | 1.03
TAGCTCACTA | 0.988
TAGCTCCCGA | 1.07
TAGCTCGCGC | 0.987
TAGCTCGCTG | 0.969
TAGCTGGGTC | 1
